From PubChem BioAssay AID1346428 (National Center for Advancing Translational Sciences (NCATS), 2018) come the findings set out here.

About 1,200 (2.5%) of roughly 48,000 compounds were called active. Another 2% or so got no clear call; they are omitted.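 Rule for the calls: active = activation of at least 60% and not above a set upper limit (about 1 call in 100 departs from these limits); inconclusive = activation of 40% to 60%, or above that upper limit; inactive = activation under 40%.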 The list shows a part of the results.

Chain of UniProt O75388 (O75388 whole entry, looked up, the tested form may be a part): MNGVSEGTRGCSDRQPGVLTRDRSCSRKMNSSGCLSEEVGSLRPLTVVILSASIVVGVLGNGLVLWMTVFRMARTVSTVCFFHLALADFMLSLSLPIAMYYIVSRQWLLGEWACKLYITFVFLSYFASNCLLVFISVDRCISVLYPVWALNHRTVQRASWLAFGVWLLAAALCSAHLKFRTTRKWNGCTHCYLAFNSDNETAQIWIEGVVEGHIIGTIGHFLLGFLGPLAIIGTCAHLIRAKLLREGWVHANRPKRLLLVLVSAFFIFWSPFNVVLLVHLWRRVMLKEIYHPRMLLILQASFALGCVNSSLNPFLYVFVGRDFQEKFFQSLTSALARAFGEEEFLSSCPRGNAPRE

The assay has as its target Probable G-protein coupled receptor 32 (Homo sapiens) (UniProt O75388). As to the kind of experiment: qHTS for Agonists of Human Resolvin D1 Receptor DRV1. The following applies: CHO-K1 GPR32 beta-arrestin PathHunter luminescence, 90 min; at 76.9 µM; stronger effect = higher value; zero percent set by DMSO-only wells. In short, it runs like this:
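PathHunter enzyme-fragment complementation, CHO-K1 GPR32 stable line; 2,500 cells/well, overnight attach; cpd 90 min 37 °C 5% CO2; detection reagent 1 h RT; chemiluminescence. DMSO = EC0.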
In general terms: Quantitative high-throughput screening tests each substance at several concentrations.
For the compound `COc1ccc(NC(=O)CSc2nnc(-c3nnn(-c4ccc(F)cc4)c3C)o2)cc1`, the activation is inactive: -1.65%.

For `COc1cc(OC)c(NC(=O)c2nc(-c3ccncc3)no2)cc1Cl`, the activation was inactive: -13%.

As to `CCCCCNC(=O)C1CCC(Cn2c(=O)c3sccc3n(CC(=O)N3CCCC3)c2=O)CC1` (stereo not drawn), the activation was inactive: -4.74%.

Turning to `O=C(CC1N=C2c3ccccc3N=C(SCc3cccc(Cl)c3)N2C1=O)NC1CCCCC1` (stereo not drawn), the activation is inactive: -30.8%.

`CCOCN(C(=O)Cn1c(C)nc2ccccc21)c1c(C)cccc1CC`: the activation is inactive: -11.1%.

As to `Cn1c(=NC(=O)c2ccc(F)cc2)sc2cc(Br)ccc21`, the activation is inactive: -1.65%.

In the case of `Cc1cc2n(n1)CCCN2C(=O)Nc1ccccc1F`, the activation is inactive: -0.484%.

Regarding `Cc1ccc(Cl)cc1-n1c(=O)cc(N2CCN(c3ccccc3)CC2)[nH]c1=O`, the activation was inactive: -10.9%.

On to `CCc1ccc(NC(=O)c2ccc(F)c(S(=O)(=O)N(C)C3CCCCC3)c2)cc1`, for which the activation was inactive: -10.2%.

For the compound `CCc1ccc(NC(=O)CSc2nccn2-c2cccc(C)c2C)cc1`, the activation is inactive: -19.1%.

Regarding `O=c1cc(-c2ccc(F)cc2)nc(SCc2nc(-c3cccc(Cl)c3)no2)[nH]1`, the activation is inactive: -6.39%.

On to `Cc1cc(NC(=O)CSc2nc3c([nH]c4ccccc43)c(=O)n2-c2ccccc2)no1`, for which the activation was inactive: -46.3%.

For `O=C(C1CCCN(S(=O)(=O)c2ccc(Br)s2)C1)N1CCN(c2ccc(F)cc2)CC1` (stereo not drawn), the activation was inactive: -18.3%.

With `COc1ccc(NC(=O)CSc2nc3ccncc3[nH]2)c(OC)c1`, the activation is inactive: -2.49%.

On to `CC1CN(C(=O)N2CCC(C(=O)NCCC3=CCCCC3)CC2)c2cc(Cl)ccc2O1` (stereo not drawn), for which the activation was inactive: -2.03%.

Turning to `Cc1ccc(C2CC(=O)N(Cc3ccccc3)c3c2c(C)nn3-c2nc(C)cc(C)n2)cc1` (stereo not drawn), the activation was inactive: -7.18%.

`O=C(C1CCN(S(=O)(=O)Cc2ccccc2)CC1)N1CCN(c2ccc(F)cc2)CC1`: the activation was inactive: -10.6%.

For the compound `Cc1ccc2c(=O)cc(C(=O)Nc3sc4c(c3C(N)=O)CCCC4)oc2c1`, the activation was inactive: 12.6%.

Consider `Cc1ccc(C)n1-c1c(C(=O)NCCCN2CCN(c3ccc(F)cc3)CC2)sc2ncccc12`, for which the activation was inactive: -13.7%.

`Cc1ccc(C)c(CN2C(=O)C3(c4ccccc42)N(c2cccc(C(F)(F)F)c2)C(=O)CS3(=O)=O)c1` (stereo not drawn): the activation is inactive: 11.7%.

For the compound `COc1ccc(C2C(=O)N(C3CCCCC3)CC(=O)N2CCc2ccc(OC)c(OC)c2)cc1` (stereo not drawn), the activation is inactive: -18.9%.

Turning to `COc1cc(NC(=O)c2nc3ccccc3nc2C)cc(OC)c1OC`, the activation is inactive: 7.08%.

Take `CCOC(=O)c1cc(C)n(CC2CCC(C(=O)Nc3ccc(OCC)cc3)CC2)c1C` (stereo not drawn): the activation was inactive: -17.5%.

On to `Cc1ccc2oc(-c3cc(NC(=O)c4ccc5c(c4)OCCO5)cc(C)c3O)nc2c1`, for which the activation is inactive: -3.24%.

Consider `COc1ccc(NC(=O)CCn2nc(-c3ccccc3OC)c3c(C)cc(C)nc32)cc1`, for which the activation is inactive: -17.7%.

For `CCC(C(=O)N1CCN(c2ccccc2F)CC1)n1nc(C)c2sc3ccccc3c2c1=O` (stereo not drawn), the activation was inactive: -13.8%.

With `COc1cc(CN(C(=O)c2cccc(Cl)c2)c2ccccn2)cc(OC)c1OC`, the activation is inactive: 29%.

`Cc1ccc(-n2nc(C(=O)Nc3ccc(Cl)cn3)c3c4ccccc4n(C)c3c2=O)cc1`: the activation is inactive: 21.3%.

`CC1=C(C(=O)OCC(C)C)C(c2ccc(OCc3ccccc3)cc2)N2C(=O)CCSC2=N1` (stereo not drawn): the activation is inactive: -25.7%.

`Cc1ccc(Cl)cc1N1CCN(C(=O)c2cccn3c(=O)c4cc(Cl)ccc4nc23)CC1`: the activation was inactive: -7.33%.

Regarding `Cc1ccccc1OCc1ccc(-c2nc(C#N)c(N3CCN(C)CC3)o2)o1`, the activation is inactive: -20.9%.

For `CCCCCCn1c(=O)c2c(ncn2C)n(C)c1=O`, the activation is inactive: 47.1%.

With `Cc1cccc(NC(=O)c2sc3nc4c(cc3c2N)CN(Cc2ccccc2)CC4)c1`, the activation is inactive: -9.99%.

On to `COc1ccccc1NC(=O)c1oc2ccccc2c1NC(=O)c1ccccc1C(F)(F)F`, for which the activation was inactive: -10.8%.

On to `CCOc1ccccc1NC(=O)C(C)Sc1nc(-c2ccccc2)c(C#N)c(=O)[nH]1` (stereo not drawn), for which the activation is inactive: 0.722%.

With `CCOc1ccc(/C=C/c2nc(C#N)c(NC(C)CC)o2)cc1` (stereo not drawn), the activation was inactive: -22.6%.

With `CCc1cccc(NC(=O)c2cnc(SC)nc2-c2ccccc2)c1`, the activation was inactive: -3.17%.

Consider `Cc1nc2sc(C(=O)Nc3ccc(F)cc3)c(N)c2c(-c2ccc(Br)cc2)c1C(=O)Nc1ccc(Cl)cc1`, for which the activation is inactive: 39.4%.

Take `O=C(Nc1ccc(NC(=O)c2cccs2)cc1)c1cccc(Br)c1`: the activation is inactive: -14.1%.

On to `Cc1ccc(C)c(Cn2c(=O)n(Cc3ccc4c(c3)OCO4)c(=O)c3oc4ccccc4c32)c1`, for which the activation is inactive: 4.8%.

Consider `CCCCOc1ccc(C(=O)NCCc2sc(-c3cccc(F)c3)nc2C)cc1`, for which the activation is inactive: -12.9%.

For `COC(=O)c1ccc(NC(=O)CC2C(=O)N(c3ccc(F)cc3)C(=O)N2Cc2ccc(OC)cc2)cc1` (stereo not drawn), the activation is inactive: -15.8%.

Turning to `Cc1cc2nc(-c3ccc(OCc4ccc(F)cc4)cc3)cc(C(F)(F)F)n2n1`, the activation is inactive: 22.9%.

Take `COc1ccc(N2CCN(S(=O)(=O)c3ccc(OC)c(-c4noc(C)n4)c3)CC2)cc1`: the activation was inactive: -18.7%.

On to `O=C(Cn1ncc2c3ccccc3n(Cc3ccc(Cl)cc3)c2c1=O)NCc1cccs1`, for which the activation was inactive: -5.93%.

With `CCOc1ccc(Sc2cc(C(=O)NC(C)CC)c3ccccc3n2)cc1` (stereo not drawn), the activation is inactive: 3.62%.

For the compound `COCCCNC(=O)CSc1nc2ccccc2c(=O)n1Cc1ccco1`, the activation was inactive: -5.28%.

With `Cc1ccc(NC(=O)CN2C(=O)COc3ccc(S(=O)(=O)N4CCCCCC4)cc32)cc1C`, the activation was inactive: -22%.

Turning to `CCOc1ccc(CCNC(=O)c2c(C)oc3ncnc(N4CCOCC4)c23)cc1`, the activation is inactive: 9.77%.

As for `COc1ccc(C(=O)Nc2ccc(OCc3cc(=O)n4ccccc4n3)cc2)cc1`, the activation was inactive: -0.434%.

As for `COc1ccc(CNC(=O)c2ccc3[nH]c(C)c(C)c3c2)c(OC)c1`, the activation was inactive: -3.61%.

Regarding `N#C/C(=C\c1ccc(-c2ccc(F)cc2F)o1)c1nc2ccccc2[nH]1`, the activation was inactive: -6.96%.

With `CCOc1cccc(CNc2ccc(O)cc2)c1OCc1ccccc1Cl`, the activation was inactive: -13.8%.

For `CCc1nnc2c(NCCc3ccc(OC)c(OC)c3)nc3ccccc3n12`, the activation was inactive: 7%.

For the compound `CCN(CC)CCOC(=O)C(c1ccccc1)C1CCCCC1` (stereo not drawn), the activation is inactive: -5.75%.

Turning to `CN(C)c1cc2c(Nc3ccc4c(cnn4Cc4ccccc4)c3)ncnc2cn1`, the activation was inactive: 33.1%.

`Cc1ccc(C)c(N2CCN(C(=O)CCS(=O)(=O)c3ccc4c(c3)CC(=O)N4C)CC2)c1`: the activation is inactive: 0%.

As to `COc1ccc(-c2onc(C)c2C)cc1S(=O)(=O)NCc1ccc(Br)cc1`, the activation was inactive: -6.96%.

In the case of `CCc1ccc(NC(=O)CC2C(=O)N(c3ccc(Cl)cc3)C(=O)N2Cc2cccs2)cc1` (stereo not drawn), the activation is inactive: -14.8%.

As for `OC[C@H]1O[C@@H](n2cnc3c(=S)nc[nH]c32)[C@H](O)[C@@H]1O`, the activation is inactive: -86.9%.

Take `CCOc1ccc(NS(=O)(=O)c2ccc3c(c2)CCN3C(C)=O)cc1`: the activation was inactive: 3.01%.

Consider `COc1ccc(-c2nnc(SCC(=O)Nc3ccc(C(C)=O)cc3)nc2-c2ccc(OC)cc2)cc1`, for which the activation was inactive: -22.5%.

Take `COc1cccc(C2CC(=O)Nc3c2c(=O)n(C)c2ncnn32)c1OC` (stereo not drawn): the activation is inactive: 9.19%.

Regarding `COc1ccc(OC)c(S(=O)(=O)Nc2cc3c(C(C)=O)c(C)oc3c3ccccc23)c1`, the activation was inactive: -1.37%.

Take `COC(=O)c1c(NC(=O)COc2cc(C)c(Cl)c(C)c2)sc2c1CCCC2`: the activation is inactive: 14.4%.

For `CC(Oc1ccc(F)cc1)C(=O)Nc1cc(-c2ccc(F)c(F)c2)no1` (stereo not drawn), the activation was inactive: 9.59%.

For `Cc1ccc(S(=O)(=O)NCC2CCC(C(=O)N(C)Cc3ccccc3)CC2)cc1` (stereo not drawn), the activation was inactive: -9.89%.

Regarding `Cc1ccc(OCC(=O)N(Cc2ccco2)C2CCS(=O)(=O)C2)cc1` (stereo not drawn), the activation was inactive: -5.03%.

As to `CCN(CC)C(=O)Cn1c(SCCOc2ccc(Cl)cc2)nc2ccccc21`, the activation is inactive: 3.46%.

For the compound `CCCc1nn2c(=O)cc(COc3ccc(/C=C(\C#N)C(=O)Nc4ccc(F)cc4)cc3)nc2s1`, the activation was inactive: -2.23%.

In the case of `COc1ccc(NC(=O)CSc2nc(-c3ccco3)cc(C(F)(F)F)n2)c(OC)c1`, the activation was inactive: -8.49%.

Turning to `CCCCN(C)C(=O)C1CCC(CNS(=O)(=O)c2ccc3c(c2)CC(C)N3C(C)=O)CC1` (stereo not drawn), the activation was inactive: -14.6%.

For the compound `O=C(CCS(=O)(=O)c1cc2c(cc1Cl)NC(=O)CO2)NCCc1ccc(Cl)cc1`, the activation was inactive: -2.34%.

Take `CC(=O)N1c2ccccc2C(=O)C1N1CCN(c2ccc(F)cc2)CC1` (stereo not drawn): the activation was inactive: -41.6%.

On to `COc1ccc(NC(=O)c2ccc(CNS(=O)(=O)c3ccc4c(c3)C(C)(C)C(=O)N4C)cc2)cc1`, for which the activation is inactive: 2.35%.

Turning to `COc1cccc(CNC(=O)C2CCCN(c3ncnc4onc(-c5ccc(F)cc5)c34)C2)c1` (stereo not drawn), the activation was inactive: -6.3%.

As to `CC(C)OCCCNC(=O)CN1C(=O)CSc2ccc(S(=O)(=O)N3CCCCC3)cc21`, the activation is inactive: 0.731%.

Consider `Cc1c(C)n(Cc2ccccc2)c2ccc(C(=O)NCCc3ccccc3Cl)cc12`, for which the activation was inactive: -21.2%.

For `COc1cccc(-n2c(=O)c3c(C)c(C(=O)N(C)C)sc3n(CC(=O)Nc3ccc(C)cc3Cl)c2=O)c1`, the activation is inactive: -8.46%.

Consider `O=C(Nc1ccc2c(c1)N(C1CCCC1)C(=O)c1ccccc1S2)c1cccc(F)c1`, for which the activation was inactive: 14.1%.

Consider `CC(C)Oc1ccc(CNC(=O)CCn2c(=O)c3cccn3c3ccc(F)cc32)cc1`, for which the activation was inactive: -26.2%.

As for `O=C1CC(c2nc(-c3cccc(Cl)c3)no2)CN1c1ccc2c(c1)OCCO2` (stereo not drawn), the activation is inactive: -12.6%.

In the case of `Cc1ccc(Cl)cc1NCc1nnc2n1CCCCC2`, the activation is inactive: 11.3%.
